In PubChem BioAssay AID504832 (National Center for Advancing Translational Sciences (NCATS), 2011):
The whole screen tested about 310,000 compounds, of which about 18,000 (5.8%) were called active. This list was built around the results that the source calls inconclusive (neither active nor inactive); the mix of calls is not that of the screen. Calls come from the whole dose curve; as a rule, active = well fitted inhibition curve with a large enough effect; inconclusive = small, poorly fitted or top-dose-only effect, or another doubt; inactive = no such curve, though single readings can be large or run the other way. Potencies of inconclusive entries are left out as doubtful fits.

Assay: Primary qHTS for delayed death inhibitors of the malarial parasite plastid, 48 hour incubation
Settings: P. falciparum luciferase growth in erythrocytes; series mostly up to 28.7 µM
How it was run: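 First compound was added to culture medium, then infected red cells at 0.1% parasitemia and 2% hematocrit (final). After incubation at 37 C under 5% CO2, luciferase detection reagent was dispensed and light output recorded.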
Potency is the fitted concentration of half-maximal effect; tags give direction and shape of the fitted curve.

Row | Structure (SMILES) | Potency
1 | C=CCNC(=S)NCCO | inactive
2 | CCc1ccc(NC(=O)c2cc(S(=O)(=O)N3CCCC3)c[nH]2)cc1 | inconclusive [inhibitor, single point]
3 | COc1ccc(S(=O)(=O)NNC(=O)C(=O)NNc2ccccn2)cc1 | inconclusive [inhibitor, partial curve, poor fit]
4 | COc1ccc(CCN(/C=C2\Sc3ccccc3C2=O)C(C)=O)cc1OC | inactive
5 | Cc1ccc(C(=O)N2CCN(c3ccccc3)CC2)cc1S(=O)(=O)N1CCCC1 | inconclusive [inhibitor, single point]
6 | COC(=O)c1c(-c2ccccc2OC)sc2ccccc12 | inconclusive [inhibitor, single point]
7 | Nc1cc(Cl)ccc1C(=O)OCC(=O)N1CCCC1 | inactive
8 | CCCNC(=O)c1cc2nc(-c3ccccc3)cc(C(F)(F)F)n2n1 | inconclusive [inhibitor, single point]
9 | CCCN1CCC(N(CCc2ccccc2)Cc2ccccc2)CC1 | inconclusive [inhibitor, partial curve, poor fit]
10 | COc1cc(NC(=O)C2CCN(S(=O)(=O)c3cccs3)CC2)cc(OC)c1 | inconclusive [inhibitor, single point]
11 | O=C(Nc1cccc(Cl)c1N1CCCCC1)c1ccc2c(c1)OCCO2 | inconclusive [inhibitor, single point]
12 | Cc1nc2nc(SCc3ccccc3)[nH]n2c(=O)c1C | inconclusive [inhibitor, full curve, poor fit]
13 | C=CCNC(=S)N1CCN(Cc2ccc3c(c2)OCO3)CC1 | inconclusive [inhibitor, full curve, poor fit]
14 | Cc1ccc2occ(/C=C/C(=O)c3ccccc3O)c(=O)c2c1 | inactive
15 | CC1(OC(=O)CCc2ccccc2)C(=O)C=C2C=C(c3ccc(C#N)cc3)N(C3CC3)C=C2C1=O (configuration not stated) | active: 13.1 µM
16 | CC(=O)c1cn(-c2ccc(Cl)cc2)c(=O)[nH]c1=O | inactive
17 | Cc1ccc(-c2nnc(SCC(=O)N/N=C/c3ccc(C)s3)n2-c2ccccc2)cc1 | inactive
18 | CCCCn1cnc2c(cnn2-c2ccc(Cl)cc2)c1=O | inactive
19 | FC(F)(F)c1nc(-c2ccccc2)ncc1-c1nnnn1-c1ccccc1 | inconclusive [inhibitor, single point]
20 | COc1ccc(N2CCN(S(=O)(=O)c3cc(Br)cnc3N)CC2)cc1 | inactive
21 | CCc1nc(NCc2ccccn2)c2oc3ccccc3c2n1 | inactive
22 | CCCCC1=CC2=C(c3ccco3)C(=O)C(C)(OC(=O)c3ccc(OC)cc3)C(=O)C2=CN1C1CC1 (configuration not stated) | inconclusive [inhibitor, single point]
23 | COC(=O)c1cc(OC)c(OC)cc1NC(=O)C1CCC(=O)N1S(=O)(=O)c1ccc(C)cc1 (configuration not stated) | inconclusive [inhibitor, single point]
24 | CCCCC(=O)Nc1ccc2oc(-c3cccnc3)nc2c1 | inactive

Row | Structure (SMILES) | Potency
25 | CCOC(=O)C1CCCN(C(=O)C2CCC(CNS(=O)(=O)c3ccc(NC(C)=O)cc3)CC2)C1 (configuration not stated) | inconclusive [inhibitor, partial curve]
26 | Cc1ccccc1COn1nnc2ccc(S(=O)(=O)N3CCOCC3)cc21 | inconclusive [inhibitor, single point]
27 | Fc1ccc(CNC(=S)Nc2cccc(C(F)(F)F)c2)cc1 | inconclusive [inhibitor, single point]
28 | CSCC[C@H](NC(=O)OC(C)(C)C)C(=O)N1CCC(C(=O)N[C@@H](C)C(=O)NC(C)c2ccccc2)CC1 (some centres not stated) | inconclusive [inhibitor, single point]
29 | CN(C)C(=O)Oc1noc2cc(Cl)ccc12 | inconclusive [inhibitor, full curve, poor fit]
30 | Cc1nc2nc(SCC(=O)NCCCN3CCCC(C)C3)nn2c(C)c1Cc1ccccc1Cl (configuration not stated) | active: 13.1 µM
31 | CCOc1ccccc1NC(=O)CSC1=C(C#N)C(c2ccco2)C(C(=O)Nc2nc3ccccc3s2)=C(C)N1 (configuration not stated) | active: 9.28 µM
32 | COc1ccc(CN2CCN(c3ncnc4scc(-c5ccc(F)cc5)c34)CC2)cc1 | inconclusive [inhibitor, partial curve, poor fit]
33 | COc1cccc(C2C3=C(N=c4s/c(=C\c5cccc(O)c5)c(=O)n42)c2ccccc2CC3)c1OC (configuration not stated) | active: 2.33 µM
34 | COc1cccc(NC(=O)Cn2c(=O)n(CCC(=O)NC3CCN(Cc4ccccc4)CC3)c(=O)c3ccccc32)c1 | inconclusive [inhibitor, single point]
35 | Nc1ccc(NC(=O)c2cccs2)c(Cl)c1 | inactive
36 | COC(=O)c1ccccc1NC(=O)CSc1nncn1C | active: 11.7 µM
37 | COc1cccc(Nc2c3c(nc4c(-c5ccccc5)c(C)nn24)CCC3)c1 | inconclusive [inhibitor, single point]
38 | CSc1ccc(C(=O)C2CCCN(C(=O)c3cccnc3SC)C2)cc1 (configuration not stated) | inconclusive [inhibitor, full curve, poor fit]
39 | CCCCNc1c(-c2ccc(SC(C)CC)c(OC)c2)nc2ccc(C)cn12 (configuration not stated) | active: 3.29 µM
40 | O=C(CN1C(=O)NC2(CCCC2)C1=O)N1CCN(S(=O)(=O)c2ccccc2)CC1 | inactive
41 | Cc1csc(NC(=O)CSc2[nH]c(=O)ncc2C)n1 | inactive
42 | COc1cccc(CN(C(=O)Cc2c[nH]c3ccccc23)C(C(=O)NC2CCCCC2)c2cccs2)c1 (configuration not stated) | active: 9.28 µM
43 | Cc1cccc(C)c1NC(=S)N(Cc1cccs1)C1CCCC1 | inactive
44 | CCOc1ccccc1Nc1nc(-c2sc(NC(=O)c3cccc(Cl)c3)nc2C)cs1 | active: 6.57 µM
45 | CCOC(=O)C1CCN(c2nc(-c3ccccc3)nc3c2oc2ccccc23)CC1 | inconclusive [inhibitor, partial curve, poor fit]
46 | COc1ccc(-c2cn(-c3ccc(C)c(Cl)c3)c(=S)[nH]2)cc1OC | active: 10.4 µM
47 | N#Cc1nc(-c2ccccc2)oc1NCCCn1ccnc1 | inconclusive [inhibitor, single point]
48 | CCC(=O)NC(c1cccs1)c1cc(Br)c2cccnc2c1O (configuration not stated) | active: 0.928 µM

Row | Structure (SMILES) | Potency
49 | COc1ccc(NC(=O)Nc2cccc([N+](=O)[O-])c2)cc1Cl | active: 6.57 µM
50 | CC(=O)N1CCC(=NNC(=O)c2cccs2)CC1 | inactive
51 | O=C(CNC(=O)C1CCCC1)Nc1ccccc1Br | inconclusive [inhibitor, single point]
52 | CC(NCc1ccccc1C(F)(F)F)C(O)c1ccccc1 (configuration not stated) | active: 8.28 µM
53 | CCCNC(=O)c1ccccc1NC(=O)c1ccc2c(c1)NC(=O)C(C)S2 (configuration not stated) | inconclusive [inhibitor, single point]
54 | CCN1CCCC1CNCc1cccc(OC)c1OCc1ccc(F)cc1 (configuration not stated) | inconclusive [inhibitor, single point]
55 | CSc1ccccc1OCc1cc(C(=O)N[C@H]2CCCCNC2=O)no1 | inconclusive [inhibitor, single point]
56 | COc1ccc(CCNC(=O)Cc2ccc(NS(=O)(=O)c3ccc(F)cc3)cc2)cc1OC | inconclusive [inhibitor, partial curve]
57 | CO/N=C/C(c1ccc(Cl)nc1)S(=O)(=O)c1ccccc1 (configuration not stated) | inactive
58 | COC(=O)c1ccccc1NC(=O)c1ccc2c(c1)CC(C)O2 (configuration not stated) | inactive
59 | CCSc1ncc(Cl)c(C(=O)Nc2sc3c(c2C(=O)NCc2cccnc2)CCCC3)n1 | inconclusive [inhibitor, single point]
60 | Cc1ccc(OCC(=O)O)c(-n2nc3ccccc3n2)c1 | inactive
61 | COC(=O)c1c(NC(=O)CN2CCC3(O)CCCCC3C2c2ccccc2OC)sc(C)c1C (configuration not stated) | active: 5.22 µM
62 | COc1ccc(N2CCN(C3CCCCC3NS(=O)(=O)c3ccccc3)CC2)cc1 (configuration not stated) | inconclusive [inhibitor, partial curve]
63 | Cc1cccc(C(=O)N[C@H](C(=O)Nc2cccc(S(=O)(=O)N3CCCC3)c2)C(C)C)c1 | inconclusive [inhibitor, single point]
64 | Cc1cc(C)nc(/N=C(\N)Nc2ccc(C(C)C)cc2)n1 | inconclusive [inhibitor, single point]
65 | COc1ccc(N(CC(=O)N2CCN(Cc3ccc4c(c3)OCO4)CC2)S(=O)(=O)c2ccc(F)cc2)cc1 | inconclusive [inhibitor, single point]
66 | O=C(CS(=O)(=O)c1ccc(Cl)c(Cl)c1)Nc1ccccc1Cl | inconclusive [inhibitor, single point]
67 | COc1ccc(C(=O)NCCc2ccc(C)cc2)cc1OC1CCN(C(C)=O)CC1 | inactive
68 | Cc1cc(/C=N/NC(N)=S)c(C)n1-c1ccc(Br)cc1 | inconclusive [inhibitor, single point]
69 | CCOc1ccc(CCNc2nc3ccccc3n3c(C)nnc23)cc1OCC | active: 5.22 µM
70 | COc1cc(NC(=O)Cn2c(=O)n(CC3CCCO3)c(=O)c3ccccc32)cc(OC)c1 (configuration not stated) | inconclusive [inhibitor, single point]
71 | COc1ccc(CC(=O)c2ccc(O)cc2O)cc1OC | inconclusive [inhibitor, single point]
72 | Cc1ccc(-n2ncc(C(=O)Nc3cc(Cl)cc(Cl)c3)c2C2CCNCC2)cc1C | inconclusive [inhibitor, full curve]
